Among all 410,000 compounds or so, about 530 (0.13%) were called active. Inconclusive results, whose numbers are uncertain, are shown with a selection of clear calls. Calls follow the shape of the dose curve; as a rule, active = well fitted inhibition curve with a large enough effect; inconclusive = small, poorly fitted or top-dose-only effect, or another doubt; inactive = no such curve, though single readings can be large or run the other way. Where the call is inconclusive, the potency comes from a doubtful curve fit.
Experiment: qHTS of GLP-1 Receptor Inverse Agonists: Cytotox Screen
Conditions: HEK293 cAMP-luciferase reporter cells, luminescence, 24 h; series mostly up to 38.3 µM
Procedure, shortened: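 Here, cytotoxicity is scored as loss of luminescence. The MLSMR collection was tested on cells seeded in medium containing 10% Nu serum, with a 24 hr compound exposure preceded by 12 hours of culture.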
For C#C[C@]1(O)CCC2C3CCC4=CC(=O)CC[C@@H]4C3CC[C@@]21C (some centres undefined), the Potency was “inactive”. In the case of CSc1ncnc2c1ncn2CCCN(C)Cc1ccco1, the Potency is reported as “inactive”. For CCCCN(CC)S(=O)(=O)c1ccc(C(=O)N(CCCN(C)C)c2nc3cc(C)cc(C)c3s2)cc1, the Potency was inconclusive: 28.2 µM [inhibitor, single point]. In the case of Cc1nc(N=C(N)N)nc2c(C)cccc12, the Potency is reported as inconclusive: 10 µM [inhibitor, partial curve, poor fit]. In the case of CCOC(=O)Cc1c(C)c2c(C)nn(-c3ccccc3)c2oc1=O, the Potency is reported as inconclusive: 2.82 µM [inhibitor, partial curve, poor fit]. For CCN(CC)S(=O)(=O)c1cc(C(=O)Nc2ccncc2)ccc1Cl, the Potency was inconclusive: 10 µM [inhibitor, partial curve, poor fit]. In the case of O=C1NC(=Nc2ccc(O)cc2)S/C1=C/c1ccco1, the Potency is reported as inconclusive: 7.94 µM [inhibitor, partial curve, poor fit]. For Cc1ccc2nc(Cl)c3cc(C(=O)NCCCN(C)Cc4ccccc4)sc3c2c1, the Potency was “inactive”. In the case of CCCOc1ccc2c(c1)C(=NN=C(N)N)c1cc(OCCC)ccc1-2, the Potency is reported as inconclusive: 12.6 µM [inhibitor, partial curve, poor fit]. For COc1ccc(CC(=O)NC2CC(=O)N(c3ccc(C)c(C)c3)C2)cc1OC (centres undefined), the Potency was “inactive”. In the case of CC(C)(C)NC(=O)CSc1ncnc2c1nnn2Cc1ccccc1Cl, the Potency is reported as “inactive”. In the case of Cc1ccc(CNC(=O)CN2C(=O)C3(SCC(=O)N3c3ccc(F)c(F)c3)c3ccccc32)cc1 (centres undefined), the Potency is reported as “inactive”. In the case of N/C(=N\OC(=O)C12CC3CC(CC(C3)C1)C2)c1ccccn1, the Potency is reported as inconclusive: 28.2 µM [inhibitor, single point]. For CN(C)CCCNc1ncnc2c1c(-c1ccccc1)cn2-c1ccccc1, the Potency was inconclusive: 12.6 µM [inhibitor, single point]. In the case of CC(C)C[C@H](NC(=O)OC(C)(C)C)C(=O)N/N=C/C1=Cc2ccccc2OC1C (some centres undefined), the Potency is reported as inconclusive: 28.2 µM [inhibitor, single point]. For CN(C)c1ccc(/C=C/C=C2/SC(=S)N(c3ccccc3)C2=O)cc1, the Potency was inconclusive: 7.08 µM [inhibitor, partial curve]. With CC1(C)Cc2c(sc3[nH]c(=S)n(Cc4ccco4)c(=O)c23)CO1 the Potency was “inactive”. For O=C1CSC(=S)N1/N=C/C=C/c1ccccc1, the Potency was “inactive”. With Cc1cc(C)cc(-n2nnn(C3C/C(=N/NC(N)=S)C4OCC3O4)c2=S)c1 (centres undefined) the Potency was inconclusive: 31.6 µM [inhibitor, single point]. For Cc1cc(C)cc(Oc2cc(NC(=O)c3cn(C)nc3C)cc([N+](=O)[O-])c2)c1, the Potency was inconclusive: 12.6 µM [inhibitor, single point]. With O=C(/C(=C/O)N=Nc1ccccc1)c1ccc(Cl)cc1 the Potency was inconclusive: 11.2 µM [inhibitor, partial curve, poor fit]. With CCc1ccc(C(=O)NNc2ccc(C)c(Cl)c2)cc1 the Potency was inconclusive: 12.6 µM [inhibitor, single point]. With CC(=O)c1ccc(S(=O)(=O)N(C)CCCC(=O)NCc2ccc3c(c2)OCO3)cc1 the Potency was “inactive”. For COc1ccc(-c2nc(CN3CCC(c4ccccc4)CC3)c(C)o2)cc1OC, the Potency was inconclusive: 14.1 µM [inhibitor, single point]. In the case of CNC(=O)c1c(NC(=O)c2ccc(S(=O)(=O)N(C)c3ccccc3)cc2)sc2c1CCN(C(C)C)C2, the Potency is reported as “inactive”. For CC1CC(C)(C)n2c(O)c(N=NC(N)=S)c3cccc1c32 (centres undefined), the Potency was inconclusive: 1.12 µM [inhibitor, full curve, poor fit]. For C/C(=N\NC(=S)NC(C)C)c1ccc(Cl)s1, the Potency was inconclusive: 2.24 µM [inhibitor, full curve, poor fit]. For CCCOc1ccccc1C1C(C(=O)Nc2ccccc2)=C(C)Nc2nnnn21 (centres undefined), the Potency was inconclusive: 10 µM [inhibitor, partial curve]. With CCCC1=Nc2cc(C(=O)NCCOC)ccc2Sc2ccccc21 the Potency was inconclusive: 3.16 µM [inhibitor, full curve]. In the case of O=C1C(=O)c2c(ccc3ccccc23)-c2ccccc21, the Potency is reported as inconclusive: 2.82 µM [inhibitor, full curve, poor fit]. In the case of O=C(Nc1nnc(C2CCCCC2)s1)c1ccc(Br)s1, the Potency is reported as “inactive”. In the case of Cc1cccc(S(=O)(=O)c2cn(C)c3cc(N4CCC(C)CC4)c(F)cc3c2=O)c1, the Potency is reported as “inactive”. For CCOC(=O)/C(C#N)=N/Nc1ccccc1C#N, the Potency was inconclusive: 8.91 µM [inhibitor, partial curve]. For Cc1nc2ccc(S(=O)(=O)NC(C(=O)NCc3ccc4c(c3)OCO4)C(C)C)cc2s1 (centres undefined), the Potency was inconclusive: 12.6 µM [inhibitor, single point]. For Cn1c(=O)c2cc(NC(=O)CCc3ccccc3)ccc2n1-c1ccccc1F, the Potency was inconclusive: 5.62 µM [inhibitor, full curve, poor fit]. In the case of CC(=O)N(/N=C1\Sc2ccccc2C1=O)c1cccc(C)c1, the Potency is reported as inconclusive: 28.2 µM [inhibitor, single point]. With CC(=O)Nc1ccc(NC(=O)CC(NC(=O)c2ccccc2)c2ccccc2)cc1 (centres undefined) the Potency was “inactive”. For Cn1c(Cl)nc2ccccc21, the Potency was “inactive”. For COCCn1nnnc1C(c1cc2cc(OC)ccc2[nH]c1=O)N1CCC(Cc2ccccc2)CC1 (centres undefined), the Potency was inconclusive: 3.55 µM [inhibitor, full curve]. With CC(C)COCc1ccc(O)c2ncccc12 the Potency was inconclusive: 2 µM [inhibitor, full curve, poor fit]. For O=S(=O)(N1CCCCC1)n1c(Cc2ccccc2)nc2ccccc21, the Potency was inconclusive: 2.24 µM [inhibitor, partial curve, poor fit]. With CSc1ccc(/C=C/C(=O)c2ccc(NC(=O)C(C)C)cc2)cc1 the Potency was inconclusive: 25.1 µM [inhibitor, single point]. For COc1cc(CN(C(=O)c2ccc(Cl)cc2)C2CCS(=O)(=O)C2)cc(OC)c1OC (centres undefined), the Potency was “inactive”. In the case of CCN(CC)C1Oc2cc3c(cc2C(c2cccc(OC)c2O)C1C)OCO3 (centres undefined), the Potency is reported as inconclusive: 3.98 µM [inhibitor, partial curve, poor fit].

Source: PubChem BioAssay AID624418 (National Center for Advancing Translational Sciences (NCATS), 2012)
Potency is read from the fitted curve at half-maximal effect.
